Reference: PubChem BioAssay AID1159614 (National Center for Advancing Translational Sciences (NCATS), 2016)
The whole screen tested about 45,000 compounds, of which about 65 (0.1%) were called active. Calls come from the whole dose curve; as a rule, active = well fitted activation curve with a large enough effect; inconclusive = small, poorly fitted or top-dose-only effect; inactive = no such curve, though single readings can be large or run the other way. This is one part of the list.

What follows are molecules tested against Galactocerebrosidase (Homo sapiens) (UniProt P54803) (assay: A Novel Cell-Based Assay to Identify Small Molecules for B -Galactocerebrosidase). Settings: 145M-Twi-hGALC-G270D cells (Twitcher mouse brain line with human GALC G270D), HMU-beta-Gal fluorescence, 48 h; series mostly up to 57.5 µM; activation: at the top concentration.
Chain of UniProt P54803 (P54803 whole entry, looked up): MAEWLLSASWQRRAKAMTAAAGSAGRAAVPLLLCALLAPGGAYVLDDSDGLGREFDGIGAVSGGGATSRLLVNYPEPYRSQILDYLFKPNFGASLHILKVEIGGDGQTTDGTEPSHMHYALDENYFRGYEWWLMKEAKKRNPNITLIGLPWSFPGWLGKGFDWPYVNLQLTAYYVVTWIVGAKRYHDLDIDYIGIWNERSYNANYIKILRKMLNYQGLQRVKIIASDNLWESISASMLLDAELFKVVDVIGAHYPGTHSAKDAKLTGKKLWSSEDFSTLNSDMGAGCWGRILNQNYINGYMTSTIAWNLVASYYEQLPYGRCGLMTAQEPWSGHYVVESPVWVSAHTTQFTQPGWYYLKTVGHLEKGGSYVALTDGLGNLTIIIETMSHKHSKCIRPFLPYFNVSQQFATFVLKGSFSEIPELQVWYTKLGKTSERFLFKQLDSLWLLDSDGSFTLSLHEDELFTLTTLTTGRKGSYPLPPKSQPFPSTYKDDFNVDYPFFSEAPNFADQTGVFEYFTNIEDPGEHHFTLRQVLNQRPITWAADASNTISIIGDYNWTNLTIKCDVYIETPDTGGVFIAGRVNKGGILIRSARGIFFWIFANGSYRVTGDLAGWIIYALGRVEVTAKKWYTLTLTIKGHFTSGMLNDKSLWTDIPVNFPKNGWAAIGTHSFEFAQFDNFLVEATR
In short: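 Fluorescence readout: HMU-β-gal cleavage by mutant GALC (0.1 mM final, citrate/phosphate pH 5.2 with 1 mg/mL taurocholate), stopped with carbonate/bicarbonate plus Triton X-100. Cells: murine Twitcher 145M-Twi expressing human G270D GALC; qHTS for activators.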
Note: 0% is about no effect; nearly all actives have a fitted effect of over 65% in size.

| SMILES | activation |
| --- | --- |
| CCC(C)NC(=O)c1ccc2nc(CCc3ccccc3)oc2c1 (stereo unspecified) | inactive: -10.7% |
| Cc1ccc(NC(=O)C(=O)NCC(c2ccc3c(c2)OCO3)N2CCOCC2)cc1C (stereo unspecified) | inactive: -6.34% |
| COc1ccc(OCC(=O)OCc2cc(=O)n3nc(C4CC4)sc3n2)cc1 | inactive: -7.7% |
| CCOC(=O)c1c(NC(=O)/C=C/c2ccc(C)cc2)sc2c1CCCC2 | inactive: -1.28% |
| Cc1ccc(Nc2c(-c3ccc(C)s3)nc3ncccn23)cc1 | inactive: -13% |
| CCCCOC(=O)c1ccc(NC(=O)c2cc(-c3cccs3)on2)cc1 | inactive: -0.881% |
| O=c1[nH]c2ccc(NCc3ccc(-c4ccccc4)o3)cc2[nH]1 | inactive: -10.6% |
| Cc1ccc(Cn2c(=O)n(CCCCC(=O)NCc3ccccc3Cl)c(=O)c3ccccc32)cc1 | inactive: 1.94% |
| Cc1cccc(OCC(=O)Nc2ccccc2C(=O)OCc2cc(=O)n3nc(C)sc3n2)c1 | inactive: -11.2% |
| O=C(NCc1ccccc1F)C(=O)NCC(c1ccco1)S(=O)(=O)c1cccs1 (stereo unspecified) | inactive: -12.3% |
| CCOc1ccc(NC(=O)CCCc2nnc3n(C)c(=O)c4sccc4n23)cc1 | inactive: -11.7% |
| CC1=C(C(=O)Nc2ccccc2)C(c2cccc(Cl)c2)n2nc(SCC(=O)c3ccc(C)cc3)nc2N1 (stereo unspecified) | inactive: -10.1% |
| O=C(CSc1nc(-c2ccccc2)nc2c1Cc1ccccc1O2)N1CCCCC1 | inactive: -4.94% |
| COc1ccc(OC)c(NC(=O)c2cn(CC(C)C)c(=O)c3cc(OC)c(OC)cc23)c1 | inactive: -14% |
| Cc1ccc(CCNC(=O)c2cc3c(-c4ccccc4F)nn(C)c3s2)cc1 | inactive: -0.428% |
| O=C(Nc1ccc2oc(-c3ccc4ccccc4c3)nc2c1)c1ccc(Cl)c(Cl)c1 | inactive: -19.5% |
| CCOc1ccccc1Nc1sc(C(=O)c2ccccc2)c(N)c1S(=O)(=O)c1ccc(C)cc1 | inactive: -4.62% |
| O=C(Nc1ccc(C(=O)OCc2cc(=O)n3nc(C4CC4)sc3n2)cc1)c1cccc(F)c1 | inactive: -1.62% |
| CCN(c1ccccc1)S(=O)(=O)c1ccc(NC(=O)c2cc(=O)c3ccccc3o2)cc1 | inactive: 16.4% |
| CCOc1ccc(-c2oc3ccc(C)cc3c(=O)c2O)cc1 | inactive: -16.7% |
| Fc1ccc(Nc2ncnc3c2nc2n3CCCCC2)c(F)c1 | inactive: -3.22% |
| COCCCNC(=O)c1ccc2c(c1)nc(C)n2-c1cccc(C)c1 | inactive: -15.8% |
| Cc1c(C(=O)OC2CCCCC2)[nH]c2c1C(=O)CC(c1ccc(C(C)(C)C)cc1)C2 (stereo unspecified) | inactive: -10% |
| CCCc1nnc(NC(=O)c2cc(=O)c3cc(C)c(C)cc3o2)s1 | inactive: -6.74% |

| SMILES | activation |
| --- | --- |
| CCC(=O)N1CCc2cc(Br)cc(S(=O)(=O)CCC(=O)N3CCN(c4cc(C)ccc4C)CC3)c21 | inactive: -25.8% |
| COc1ccc2c(CNC3CCCCCC3)c(C(=O)O)n(Cc3ccccc3F)c2c1 | inactive: -10% |
| CCOC(=O)c1cc(-c2ccc(OC)cc2)n(CCC(=O)NC2CCCCC2)c1C | inactive: -37.2% |
| CCOC(=O)c1c(S(=O)(=O)N2CCC(C(=O)Nc3ncccc3C)CC2)c(C)n(C)c1C | inactive: -10% |
| Cc1nc2cccnc2n1C1CCN(C(=O)Nc2ccccc2)CC1 | inactive: -3.63% |
| O=C(c1ccccc1)N1CCCC(c2nc3c(nnn3Cc3ccc(F)cc3F)c(=O)[nH]2)C1 (stereo unspecified) | inactive: -7.19% |
| COc1cc(C(=O)Nc2ccc(-n3c(C)nc4ccccc4c3=O)cc2)cc(OC)c1OC | inactive: -29.9% |
| Cc1cc(C)cc(N2CC(c3nnc(NC(=O)c4ccco4)s3)CC2=O)c1 (stereo unspecified) | inactive: -15.4% |
| CCSc1ncc(Cl)c(C(=O)N(Cc2ccccc2)c2ccc(OC)cc2)n1 | inactive: -21.2% |
| COc1cc(CNCCSc2nnnn2C)ccc1OCc1ccc(C)cc1 | inactive: -13% |
| CCOc1cccc(NC(=O)c2sc3nc(-c4ccc(F)cc4)ccc3c2N)c1 | inactive: -9.82% |
| O=c1c(=O)n(-c2ccccc2)ccn1Cc1c(F)cccc1Cl | inactive: -3.03% |
| O=C(COCc1cc(-c2cccs2)on1)N1CCN(c2ccc(F)cc2)CC1 | inactive: -5.77% |
| COc1ccc(CNS(=O)(=O)c2cc(Br)cc3c2N(C(C)=O)C(C)C3)cc1 (stereo unspecified) | inactive: -7.23% |
| CCOC(=O)C1CCN(C(c2ccc(OCC)cc2)c2c(O)cc(C)n(CCOC)c2=O)CC1 (stereo unspecified) | inactive: -1.35% |
| O=C(NCc1cccc(F)c1)c1ccc(CN2CC(=O)N3CCCCC3C2=O)cc1 (stereo unspecified) | inactive: -1.51% |
| O=c1c2oc3ccccc3c2n(Cc2ccc(F)cc2)c(=O)n1Cc1ccco1 | inactive: -13.3% |
| Cc1nc(-c2ccc(Cl)cc2)oc1COC(C)(C)C(=O)O | inactive: -11.3% |
| Cc1ccc(-c2noc(-c3ccc(NCc4cccnc4)c([N+](=O)[O-])c3)n2)cc1 | inactive: -2.58% |
| CCCCn1c(=NC(=O)c2c(-c3c(F)cccc3Cl)noc2C)c(C(=O)OCC)cc2c(=O)n3ccccc3nc21 | inactive: -11.5% |
| Cc1cccc(C(=O)NCCc2nc3ccccc3n2Cc2ccc(Cl)cc2)c1 | inactive: 0.3% |
| CC(Sc1nc2c(c(=O)[nH]1)CCCC2)C(=O)Nc1cc(C(F)(F)F)ccc1Cl (stereo unspecified) | inactive: -11.4% |
| CCOC(=O)c1cccc(NS(=O)(=O)c2ccc3[nH]c4c(c3c2)CCCC4)c1 | inactive: -2.97% |
| Cc1ccc(OC(C)C(=O)N2CCN(CCc3ccncc3)CC2)cc1C (stereo unspecified) | inactive: -7.5% |

| SMILES | activation |
| --- | --- |
| Cc1ccc(-n2cnc3cc(C(=O)NCc4ccc(F)cc4)ccc32)c(C)c1 | inactive: -9.43% |
| CCOC(=O)c1ccc2nc(C)cc(Nc3ccc(OC(C)C)cc3)c2c1 | inactive: -25.5% |
| CCCCc1ccc(-n2nc3cc(Cl)c(NC(=O)c4ccc(OC)cc4)cc3n2)cc1 | inactive: -0.0295% |
| CCOC(=O)C1CCN(c2nc3c(S(=O)(=O)c4ccccc4)nnn3c3ccc(Cl)cc23)CC1 | inactive: -16% |
| Cc1ccc(NC(=O)CN2CCN(c3ccccc3F)CC2)cc1F | inactive: -18.7% |
| Cc1ccc(Cn2c(C)c(CNCC(C)c3ccccc3)c(C(=O)O)c2C)cc1 (stereo unspecified) | inactive: -3.46% |
| O=S(=O)(NCc1ccc(Cl)cc1)c1ccc2[nH]c3c(c2c1)CCCC3 | inactive: -3.43% |
| CCOc1ccc(-c2cc3c(=O)n(Cc4nc(-c5ccccc5OCC)oc4C)ccn3n2)cc1Cl | inactive: 16.8% |
| Cc1ccc(NC(=O)c2ccc(Cl)cc2Cl)c(C(=O)c2ccccc2)c1 | inactive: -12.7% |
| COCCCNC(=O)C1CCC(Cn2c(=O)c3sccc3n(C)c2=O)CC1 (stereo unspecified) | inactive: -17.5% |
| CCC(CC)C(=O)Nc1ccccc1SCc1cc(=O)c2cccc(C)c2[nH]1 | inactive: -4.25% |
| CCOC(=O)C(CC)n1nc(C)c2c(C)n(-c3ccc(C)cc3)nc2c1=O (stereo unspecified) | inactive: 0.842% |
| COc1ccc(-n2cc(-c3ccc4c(c3)OCO4)n(CC(=O)Nc3cccc(C)c3C)c2=O)c(OC)c1 | inactive: -20.1% |
| CCCCN(CCCNC(=O)c1cc(Nc2ccc(OC)cc2)nc2ccccc12)Cc1ccccc1 | inactive: -1.1% |
| COc1ccc(C(=O)c2sc3nc(-c4ccc(C)cc4)cc(C(F)(F)F)c3c2N)cc1 | inactive: -26% |
| Cc1ccc(C)c(N2CCN(S(=O)(=O)c3ccc(-c4coc(C)n4)cc3)CC2)c1 | inactive: -38.1% |
| COc1cc(OC)cc(C(=O)Nc2ccc(-c3nc4cc(C(C)C)ccc4o3)cc2)c1 | inactive: -9.45% |
| CCCCc1c(C)nc2c(-c3ccc(Cl)cc3)c(C)[nH]n2c1=O | inactive: -18.1% |
| Cc1cccc(N2CCN(C(=O)Cn3ncc4c5ccccc5n(C)c4c3=O)CC2C)c1 (stereo unspecified) | inactive: -14.5% |
| COc1cc2c3cc1Oc1cc(ccc1O)C[C@@H]1c4c(cc(OC)c(O)c4Oc4ccc(cc4)C[C@@H]3N(C)CC2)CC[N+]1(C)C | inactive: -21.3% |
| O=c1c(S(=O)(=O)c2ccccc2)cn(Cc2ccc(F)cc2)c2cc(N3CCOCC3)c(F)cc12 | inactive: -30.9% |
| CCOC(=O)c1ccc(N2C(=O)c3n[nH]c(-c4cccs4)c3C2c2ccc(CC)cc2)cc1 (stereo unspecified) | inactive: -21.9% |
| O=S(=O)(Nc1ccc(F)c(Cl)c1)c1ccc(Br)s1 | inactive: -23.6% |
| Cc1ccc(S(=O)(=O)c2nc(S(=O)(=O)c3ccc(C)cc3)c(NCCCOC(C)C)s2)cc1 | inactive: -13.9% |

| SMILES | activation |
| --- | --- |
| COc1cccc2cc(-c3nc(Nc4cccc(C)c4C)sc3C)c(=O)oc12 | inactive: -8.98% |
| Nc1nonc1C(=O)NCCNCc1ccccc1F | inactive: -8.63% |
| O=C(COCc1cc(-c2ccc(F)cc2)on1)Nc1cc(Cl)ccc1O | inactive: -17.9% |
| CC(=O)C1=C(c2ccc(Cl)c(Cl)c2)N(C(C)=O)n2c(nnc2-c2ccccc2)S1 | inactive: -10.4% |
| COc1ccc(CCNC(=O)CCCn2c(=O)c3ccccc3n(Cc3ccccc3C#N)c2=O)cc1OC | inactive: -13.9% |
| Cc1ccccc1-n1nc(CO)c(C(=O)NCC(c2ccccc2)c2ccccc2)n1 | inactive: -7.89% |
| CCOC(=O)c1c(NC(=O)/C=C/c2ccc(C)cc2)sc(C(C)=O)c1C | inactive: -9.03% |
| CC1(C)[C@H](C(=O)O)N2C(=O)C[C@H]2S1(=O)=O | inactive: -8.45% |
| CC(=O)Nc1nonc1-c1nnc(SCC(=O)Nc2cc(Cl)ccc2C)n1C | inactive: -35.7% |
| COc1cc(C(CC(=O)Nc2cccc(C(C)=O)c2)N2Cc3ccccc3C2=O)cc(OC)c1OC (stereo unspecified) | inactive: 7.68% |
| COc1cccc(C2C=C(c3ccccc3)Nc3c(C(=O)Nc4ccccc4)cnn32)c1OC (stereo unspecified) | inactive: -3.58% |
| Cc1ccc(CSCCC(=O)N2CCN(c3ccc(F)cc3)CC2)cc1 | inactive: -15% |
| COc1ccccc1CNC(=O)Cn1c(-c2ccc(F)cc2)cc(C(C)=O)c1C | inactive: -13.5% |
| CCN(CC)CCN(C(=O)c1ccco1)c1nc2c(C)c(C)ccc2s1 | inactive: 10.4% |
| O=C(Cn1nc(Cc2ccncc2)c2ccccc2c1=O)Nc1cccc(C(F)(F)F)c1 | inactive: -12.6% |
| CN(C(=O)c1c[nH]c2ccc(S(=O)(=O)Nc3cccc(C(F)(F)F)c3)cc2c1=O)C1CCCCC1 | inactive: -13.3% |
| COc1ccc(N2CCN(C(=O)CN3CCSc4ccccc43)CC2)cc1 | inactive: -21.3% |
| Cc1ccc(-c2cc(C(F)(F)F)n3nc(-c4cccc(Br)c4)cc3n2)cc1 | inactive: -12.4% |
| CC(=O)Nc1ccc(NC(=O)CN2C(=O)CC(c3ccco3)Sc3ccccc32)cc1 (stereo unspecified) | inactive: -6.93% |
| Cc1cccc(C)c1Nc1c(-c2ccc(N3CCOCC3)cc2)nc2ncccn12 | inactive: -11.9% |
| O=C(NCCc1ccc(Cl)cc1)c1nnc(Cc2ccc(F)cc2)o1 | inactive: -9.1% |
| O=C(CCSCc1ccc(Cl)cc1)NCCc1ccccc1 | inactive: -10.6% |
| Cc1ccc(NC(=O)C2CCCN(c3ncnc4onc(C)c34)C2)c(Cl)c1 (stereo unspecified) | inactive: -12.9% |
| CN(C)S(=O)(=O)c1ccc(C(=O)NCCSc2c(-c3ccc(Br)cc3)[nH]c3ccccc23)cc1 | inactive: -9.85% |
